These molecules were tested on hla promoter (assay: Paper disc diffusion and lux assay (hla promoter lux reporter)). Conditions: induction or repression on hla promoter; DMSO control printed as +++.
Format: cell-based, S. aureus
Experimental: A single colony of bioluminescent S. aureus carrying the hla-promoter lux reporting system was resuspended in 200 μl of sterile water, diluted 1000-fold into 0.7% (w/v) BHI agar and overlaid onto BHI agar plates. 10 μl of the 50 mM analogues compounds dissolved in DMSO were impregnated to paper disc and placed on the lawn of bacteria. The plates were incubated overnight at 37° C. The luminescence was detected with Xenogen IVIS 100 in vivo imaging system (Xenogen, Alameda, Calif.).

Q: With O=C(O)CN1C(=O)/C(=C/c2ccccc2)SC1=S [Compound 1] as the molecule, how does the Virulence hla promoter read?
A: Its Virulence hla promoter is “−”.

Q: With COc1cc(/C=C2\SC(=S)N(CC(=O)O)C2=O)ccc1OCc1ccc(Cl)cc1 [Compound 6] as the molecule, how does the Virulence hla promoter read?
A: The Virulence hla promoter was “−”.

Q: For COc1ccc(/C=C2\SC(=S)N(CC(=O)O)C2=O)cc1OCc1ccc(Cl)cc1 [Compound 15], which Virulence hla promoter is on record?
A: Its Virulence hla promoter is “+”.

Q: Which Virulence hla promoter does the source give for O=C(O)CN1C(=O)/C(=C/c2cccc(OCc3ccc(Cl)cc3Cl)c2)SC1=S [Compound 17] here?
A: Its Virulence hla promoter is “−”.

Q: Which Virulence hla promoter does the source give for COc1ccc(/C=C2\SC(=S)N(CC(=O)O)C2=O)cc1OCc1ccc(Cl)cc1Cl [Compound 18] here?
A: The Virulence hla promoter was “−”.

Q: CCOc1cc(/C=C2\SC(=S)N(CC(=O)O)C2=O)ccc1OCc1ccc(Cl)cc1 [Compound 20] was tested. Which Virulence hla promoter did it give?
A: The Virulence hla promoter was “−”.

Q: With COc1cc(/C=C2\SC(=S)N(CC(=O)O)C2=O)ccc1OCc1ccccc1 [Compound 22] as the molecule, how does the Virulence hla promoter read?
A: Its Virulence hla promoter is “−”.

Q: Which Virulence hla promoter does the source give for CCOc1cc(/C=C2\SC(=S)N(CC(=O)O)C2=O)ccc1OCc1ccc(Cl)c(Cl)c1 [Compound 34] here?
A: Its Virulence hla promoter is “+”.

Q: With COCc1ccccc1 [Compound 52] as the molecule, how does the Virulence hla promoter read?
A: The Virulence hla promoter was “−”.

Q: Which Virulence hla promoter does the source give for CC(C(=O)O)N1C(=O)/C(=C/c2ccc(Cl)cc2)SC1=S (stereo not shown) [Compound 53] here?
A: Its Virulence hla promoter is “+”.

Q: For O=C(O)CN1C(=O)/C(=C/c2cccc(OCc3ccccc3F)c2)SC1=S [Compound 63], which Virulence hla promoter is on record?
A: The Virulence hla promoter was “−”.

Q: COC(=O)CN1C(=O)C(=Cc2ccc(OCc3ccccc3)cc2)SC1=S [Compound 69] was tested. Which Virulence hla promoter did it give?
A: Its Virulence hla promoter is “−”.

Q: How did the Virulence hla promoter turn out when O=C(O)CN1C(=O)C(=Cc2ccc(OCc3ccc(Cl)cc3)cc2)SC1=S [Compound 82] was run?
A: Its Virulence hla promoter is “−”.

Reference: patent US20190307729A1, “ANTIMICROBIAL COMPOUNDS AND METHODS FOR USE THEREOF” (VERSITECH LIMITED, priority 2016, published 2019)
